# pKi: −log10 of the molar value. Read-outs that look alike come from different tables or passages of the source. At least one structure is not confirmed: it was looked up by name or label, or the drawing left a doubt. Bridge positions count the residues as written; N and C are the ends. Peptide text beside a SMILES is read from it. * marks the point of attachment. X3 = CC[N+]1=C(/C=C/C=C/C=C2/N(CCCCCC(=O)*)c3ccc(S(=O)(=O)O)cc3C2(C)C)C(C)(C)c2cc(S(=O)(=O)[O-])ccc21; X1 = C[N+]1=C(/C=C/C=C/C=C2/N(CCCCCC(=O)*)c3ccccc3C2(C)C)C(C)(C)c2cc(S(=O)(=O)[O-])ccc21; X2 = NC(=O)COCC(=O)NCCOCCOCCOCCN*
# Experiments:
# collagen = type: binding; conditions: 1 h 37° C., Ex646/Em678 nm
# Description: Commercially available collagen-covered 96-well plates were used (BD Biocoat, Art. code BDAA 356649, Becton, Dickinson Biosciences, Two Oak Park, Bedford, Mass. 01730). Triplicate wells were made of each test Compound at 30 nM, 100 nM or 300 nM (1000 nM included in some cases), and the plate was incubated in the plate reader for one hour at 37° C. with shaking every other minute*. The volume in each well was 200 μl. At the end of the incubation, 150 μl supernatant was transferred to an untreated 96-well plate, and the fluorescence was read with excitation at 646 nm and emission at 678 nm wavelengths.
# For calculation of the degree of binding, the fluorescence from the supernatants was compared to the fluorescence from 150 μl aliquots with the same initial concentrations. In all cases, median values from 3 wells were used.
# HT-29 tumour = assay: In vivo optical imaging of HT-29 tumour-bearing mice; conditions: mean tumour region intensity divided by mean muscle region intensity, iv injection, HT-29 tumours s.c.
# Description: Female BALB c/A nude (Bom) mice were used in the study. The use of the animals was approved by the local ethics committee. As the animals were immunocompromised, they were housed in individually ventilated cages (IVC, Scanbur BK) supplied with HEPA filtered air. The animals had ad libitum access to “Rat and Mouse nr. 3 Breeding” diet (Scanbur BK) and tap water acidified by addition of HCl to a molar concentration of 1 mM (pH 3.0). In order to protect the animals during handling and all procedures before the imaging procedure, they were handled under conditions of laminar HEPA filtered air.
# The animals were allowed an acclimatisation period of at least 5 days before being injected s.c. with HT-29 tumour cell suspensions at two sites (shoulder and left, lower flank) with a nominal dose of 2.5-3×10^6 cells per injection in a volume of 100 μl. The s.c. injections were performed under light gas anaesthesia. The tumours were allowed to grow for 2-4 weeks.
# For immobilisation during the optical imaging procedure, the animals were anaesthetized in a coaxial open mask to light surgical level anaesthesia with Isoflurane (typically 1.5-2%) with oxygen as the carrier gas. The animals were supplied external heating from a heating blanket to sustain normal body temperature for the duration of the imaging (up to 3 hours). A Venflon catheter was placed in the tail vein for contrast agent administration. Each animal was given one contrast agent injection.
# To avoid artefacts from imaging probe in the skin, a ˜3 mm diameter piece of skin over tumour and muscle was removed before imaging, but while the animal was anaesthetized. […]
# Image analysis was performed with custom written MATLAB software. […] The mean signal of the pixel values inside each region was calculated. The mean signal and pixel standard deviation was calculated.
# Based on the in-vitro data from example 7-10, in-vivo results from compounds 1, 2, 4 and 6 are presented. Tumour enhancement is quantified by a target to background ratio (TBR) defined as the ratio of the mean tumour region intensity divided by the mean muscle region intensity.
# αVβ3 receptor = target: T1, αVβ3 receptor (Homo sapiens, UniProt P05106+P06756); assay: Competition assay using 125I-echistatin on EA-Hy926 membranes; type: binding; conditions: competition with 125I-Echistatin
# T1 construct: endogenous in cells; host or cells: EA-Hy926 human endothelial cell line (membrane preparation)
# Description: A classical competition assay using ^125I-echistatin was performed in order to check the affinity (Ki) of the RGD-Cy^D conjugates (Compounds 1 to 8) towards membranes expressing. the αVβ3 receptor. Ki was determined in receptor competition studies with membranes prepared from human endothelial cells. Membranes from the human endothelial adenocarcinoma cell line EA-Hy926 that express several integrins including αVβ3 were prepared and used as a receptor source. Competitive binding of ^125I-Echistatin, a known […] for several integrins including αVβ3, was carried out with varying concentrations of cold compounds.
SMILES,Collagen binding (% bound) (collagen; initial conc. 30 nM) [%],Collagen binding (% bound) (collagen; initial conc. 100 nM) [%],Collagen binding (% bound) (collagen; initial conc. 300 nM) [%],Target to background ratio (TBR) (HT-29 tumour),Collagen binding (% bound) (collagen; initial conc. 1000 nM) [%],pKi (αVβ3 receptor)
"CC[N+]1=C(/C=C/C=C/C=C2/N(CCCCCC(=O)NCCCC[C@@H]3NC(=O)CSC[C@@H](C(=O)NCCOCCOCCOCCNC(=O)COCC(N)=O)NC(=O)[C@H](Cc4ccccc4)NC(=O)[C@@H]4CSSC[C@H](NC3=O)C(=O)N[C@@H](CCCNC(=N)N)C(=O)NCC(=O)N[C@@H](CC(=O)O)C(=O)N4)c3ccc(S(=O)(=O)O)cc3C2(C)C)C(C)(C)c2cc(S(=O)(=O)[O-])ccc21 [Compound 1, RGD-[Cy5(2)] Dye Conjugate] ({CH2CO}-K(X3)CRGDCFC-X2; disulfide 2-6; thioether N-8)",94.3,71.2,70.5,1.43,,
"C[N+]1=C(/C=C/C=C/C=C2/N(CCCCCC(=O)NCCCC[C@@H]3NC(=O)CSC[C@@H](C(=O)NCCOCCOCCOCCNC(=O)COCC(N)=O)NC(=O)[C@H](Cc4ccccc4)NC(=O)[C@@H]4CSSC[C@H](NC3=O)C(=O)N[C@@H](CCCNC(=N)N)C(=O)NCC(=O)N[C@@H](CC(=O)O)C(=O)N4)c3ccccc3C2(C)C)C(C)(C)c2cc(S(=O)(=O)[O-])ccc21 [Compound 3, RGD-Cy5(1)) Dye Conjugate] ({CH2CO}-K(X1)CRGDCFC-X2; disulfide 2-6; thioether N-8)",80.9,84.6,77.2,,40.3,
"CC1(CCCCS(=O)(=O)O)C(/C=C/C=C/C=C2/N(CCCCCC(=O)NCCCC[C@@H]3NC(=O)CSC[C@@H](C(=O)NCCOCCOCCOCCNC(=O)COCC(N)=O)NC(=O)[C@H](Cc4ccccc4)NC(=O)[C@@H]4CSSC[C@H](NC3=O)C(=O)N[C@@H](CCCNC(=N)N)C(=O)NCC(=O)N[C@@H](CC(=O)O)C(=O)N4)c3ccc(S(=O)(=O)O)cc3C2(C)C)=[N+](CCCCS(=O)(=O)O)c2ccc(S(=O)(=O)O)cc21 (stereo partly drawn) [Compound 4, RGD-Cy5** Dye Conjugate]",23.7,13.9,9.6,1.72,,
CC1(CCCCS(=O)(=O)O)C(/C=C/C=C/C=C2\N(CCCCCC(=O)NCCCC[C@@H]3NC(=O)CSC[C@@H](C(=O)NCCOCCOCCOCCNC(=O)COCC(N)=O)NC(=O)[C@H](Cc4ccccc4)NC(=O)[C@@H]4CSSC[C@H](NC3=O)C(=O)N[C@@H](CCCNC(=N)N)C(=O)NCC(=O)N[C@@H](CC(=O)O)C(=O)N4)c3ccc(S(=O)(=O)O)cc3C2(C)CCCCS(=O)(=O)O)=[N+](Cc2ccccc2)c2ccc(S(=O)(=O)[O-])cc21 (stereo partly drawn) [Compound 5],,,,,,8.77
"CC1(C)C(/C=C/C=C/C=C2/N(CCCS(=O)(=O)O)c3ccc(S(=O)(=O)O)cc3C2(C)CCCCCC(=O)NCCCC[C@@H]2NC(=O)CSC[C@@H](C(=O)NCCOCCOCCOCCNC(=O)COCC(N)=O)NC(=O)[C@H](Cc3ccccc3)NC(=O)[C@@H]3CSSC[C@H](NC2=O)C(=O)N[C@@H](CCCNC(=N)N)C(=O)NCC(=O)N[C@@H](CC(=O)O)C(=O)N3)=[N+](CCCS(=O)(=O)O)c2ccc(S(=O)(=O)O)cc21 (stereo partly drawn) [Compound 6, RGD-Alexa 647 Dye Conjugate]",15.7,9.4,12.4,1.98,,
CCN1\C(=C/C=C/C=C/C2=[N+](CCCCCC(=O)NCCOCCOCCOCCNC(=O)COCC(=O)NCCCC[C@@H]3NC(=O)CSC[C@@H](C(=O)NCCOCCOCCOCCNC(=O)COCC(N)=O)NC(=O)[C@H](Cc4ccccc4)NC(=O)[C@@H]4CSSC[C@H](NC3=O)C(=O)N[C@@H](CCCNC(=N)N)C(=O)NCC(=O)N[C@@H](CC(=O)O)C(=O)N4)c3ccc(S(=O)(=O)[O-])cc3C2(C)C)C(C)(C)c2cc(S(=O)(=O)O)ccc21 [Compound 8],,,,,,8.54

# — US20100303727A1, “OPTICAL IMAGING AGENTS” (priority 2007, published 2010)
